Results: PubChem BioAssay AID1963576 (National Center for Advancing Translational Sciences (NCATS), 2024)
Hit rate of the full screen: of about 46,000 compounds, about 60 (0.1%) were called active. Not shown: some 3% with an inconclusive outcome. Calls follow the shape of the dose curve; as a rule, active = well fitted inhibition curve with a large enough effect; inconclusive = small, poorly fitted or top-dose-only effect; inactive = no such curve, though single readings can be large or run the other way. The list shows a part of the results.

Test: Primary qHTS assay for Inhibitors of ovarian cancer metastasis using an organotypic tumor microenvironment (TME) model. Also: nearly all actives have a fitted effect of over 65% in size.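 As to activity change, negative = inhibition: plate controls were DMSO wells for no effect and tomatine positive control wells for full effect.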
Conditions: SKOV3ip1-GFP adhesion/invasion on 3D omental model, fluorescence; series mostly up to 45.8 µM; activity change, negative = inhibition: at the top concentration
Summary of the method: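 Adhesion/invasion was scored as fixed GFP-labeled SKOV3ip1 cell counts (488/509 nm), normalized to DMSO and tomatine controls. Cancer cells in serum-free medium, with four compound doses (0.36-46 umol/L), sat 2 hr at RT then 16 hr at 37 C on a 48 hr fibroblast/mesothelial/ECM culture.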

Activity change, negative = inhibition, inactive:
O=C(NCCC1=CCCCC1)C1CCN(C(=O)N2CCOc3ccc(Cl)cc32)CC1 -8.98%
Cc1cn2c(=O)c(S(=O)(=O)Nc3ccc(F)cc3F)c(C)nc2s1 5.96%
COc1cccc(NC(=O)C2CCCN(S(=O)(=O)c3cccc4nonc34)C2)c1 (stereo not given) 11.4%
CN(Cc1ccccc1)c1ccc(-c2nc(-c3ccncc3)no2)cc1[N+](=O)[O-] -8.08%
O=C(NCc1ccco1)c1ccc2c(c1)N(Cc1ccc(Cl)cc1)C(=O)c1ccccc1S2(=O)=O -28.6%
COC(=O)c1nnn(-c2ccc(Br)cc2)c1C(=O)OC 1.08%
COc1ccc(-c2nnc(SCC(=O)Nc3ccc(C)c(C)c3)s2)cc1 8.49%
CCOc1ccc(N2C(=O)c3[nH]nc(-c4ccc(OC)cc4)c3C2c2cccs2)cc1 (stereo not given) -23.4%
COCCCNC(=O)c1ccc2c(c1)N(Cc1ccccc1F)C(=O)c1ccccc1S2=O (stereo not given) -22.6%
Cc1cnc(Nc2ccc(OCCN3CCCC3)cc2)nc1Nc1cccc(S(=O)(=O)NC(C)(C)C)c1 32.5%
O=C1CCc2cc(S(=O)(=O)NC(C(=O)Nc3cccc(F)c3)c3ccccc3)ccc2N1 (stereo not given) 7.84%
Cc1ccc(C)c(Nc2nnc(-c3ccc(C)c(S(=O)(=O)NCC4CCCO4)c3)c3ccccc23)c1 (stereo not given) -21.8%
O=C(Cn1c(=O)n(Cc2nc(-c3ccccc3)no2)c(=O)c2ccccc21)Nc1cccc(Cl)c1 -6.28%
COC(=O)c1cc(NC(=O)c2cc3sccc3n2Cc2ccc(Cl)cc2)cc(C(=O)OC)c1 6.15%
CCOc1ccc(NC(=O)CSc2oc(-c3ccccc3)nc2S(=O)(=O)c2ccc(Cl)cc2)cc1 -0.835%
COc1ccc(C(=O)/C=C/c2cn(CC(O)CN3CCc4ccccc43)c3ccccc23)cc1 (stereo not given) -13.6%
COc1cccc(NC(=O)c2oc3ccccc3c2NC(=O)C2CCCCC2)c1 -3.57%
O=C1NC(NS(=O)(=O)c2ccccc2)(C(F)(F)F)C(=O)N1c1ccc(F)cc1 (stereo not given) 6.55%

outcome, inactive:
Cc1cc(C)cc(C(=O)NCC(c2ccc(N(C)C)cc2)N2CCCC2)c1 (stereo not given)
O=C(NCc1ccc(Cl)cc1)c1ccc(Cn2c(=O)c3cccn3c3cccnc32)cc1
Oc1ccccc1Nc1nc2ccccc2n2nnnc12
COc1ccc(S(=O)(=O)N2CCN(Cc3nc4ccc(C)cc4o3)CC2)cc1
CCc1ccccc1NC(=O)CCCN1C(=O)CCn2nc(-c3cn(C)c4ccccc34)cc21
Cc1cc(N2CCC(C(=O)N(CC(C)C)CC(C)C)CC2)n2nc(C)c(-c3ccc(Cl)cc3)c2n1
O=S(=O)(c1ccccc1)c1nnn2c1nc(NCc1ccc(Cl)cc1)c1sccc12
